# Laboratory results as given in article PMC9911399, “Two distinct binding modes provide the RNA-binding protein RbFox with extraordinary sequence specificity”.
# Numbering of substitutions follows the chain as printed; changes in the protein carry UniProt numbers. Some of the results follow.
# T1: RBFOX1 RRM (Homo sapiens, UniProt Q9NWB1 109-208)
# T1 sequence: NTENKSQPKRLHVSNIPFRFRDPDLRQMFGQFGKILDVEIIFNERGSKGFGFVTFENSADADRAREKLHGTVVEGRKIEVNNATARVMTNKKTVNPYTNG
# B1: UACCUUG (DNA:RNA)
# RNA: GGGAGACCGGAAUUCAGAUUGUCCUACCUUGUUAAAUCCCGUCGUAGCCACCA
# DNA 1: CAATCTGAATTCCGGTCTCCC
# DNA 2: TGGTGGCTACGACGGGATT
# B2: CUGCUCG (DNA:RNA)
# RNA: B1 RNA with U25C, A26U, C27G, U30C
# DNA 1: CAATCTGAATTCCGGTCTCCC
# DNA 2: TGGTGGCTACGACGGGATT
# B3: CGGUCCG (DNA:RNA)
# RNA: B1 RNA with U25C, A26G, C27G, C28U, U29C, U30C
# DNA 1: CAATCTGAATTCCGGTCTCCC
# DNA 2: TGGTGGCTACGACGGGATT
# B4: UCGGGCG (DNA:RNA)
# RNA: B1 RNA with A26C, C27G, C28G, U29G, U30C
# DNA 1: CAATCTGAATTCCGGTCTCCC
# DNA 2: TGGTGGCTACGACGGGATT
# B5: UAAUAUG (DNA:RNA)
# RNA: B1 RNA with C27A, C28U, U29A
# DNA 1: CAATCTGAATTCCGGTCTCCC
# DNA 2: TGGTGGCTACGACGGGATT
# B6: AGCACAC (DNA:RNA)
# RNA: B1 RNA with U25A, A26G, C28A, U29C, U30A, G31C
# DNA 1: CAATCTGAATTCCGGTCTCCC
# DNA 2: TGGTGGCTACGACGGGATT
# B7: GCUACGC (DNA:RNA)
# RNA: GGGAGACCGGAAUUCAGAUUGUCCGCUACGCUUAAAUCCCGUCGUAGCCACCA
# DNA 1: CAATCTGAATTCCGGTCTCCC
# DNA 2: TGGTGGCTACGACGGGATT
# B8: GAAUGUA (DNA:RNA)
# RNA: B1 RNA with U25G, C27A, C28U, U29G, G31A
# DNA 1: CAATCTGAATTCCGGTCTCCC
# DNA 2: TGGTGGCTACGACGGGATT
# B9: UGGGUCA (DNA:RNA)
# RNA: B1 RNA with A26G, C27G, C28G, U30C, G31A
# DNA 1: CAATCTGAATTCCGGTCTCCC
# DNA 2: TGGTGGCTACGACGGGATT
# B10: AUGUGAA (DNA:RNA)
# RNA: GGGAGACCGGAAUUCAGAUUGUCCAUGUGAAUUAAAUCCCGUCGUAGCCACCA
# DNA 1: CAATCTGAATTCCGGTCTCCC
# DNA 2: TGGTGGCTACGACGGGATT
# B11: CUCAAUG (DNA:RNA)
# RNA: B1 RNA with U25C, A26U, C28A, U29A
# DNA 1: CAATCTGAATTCCGGTCTCCC
# DNA 2: TGGTGGCTACGACGGGATT
# B12: GUACUCA (DNA:RNA)
# RNA: B10 RNA with A25G, G27A, U28C, G29U, A30C
# DNA 1: CAATCTGAATTCCGGTCTCCC
# DNA 2: TGGTGGCTACGACGGGATT
# B13: AUCUGUA (DNA:RNA)
# RNA: B10 RNA with G27C, A30U
# DNA 1: CAATCTGAATTCCGGTCTCCC
# DNA 2: TGGTGGCTACGACGGGATT
# B14: GGAUUGG (DNA:RNA)
# RNA: B7 RNA with C26G, U27A, A28U, C29U, C31G
# DNA 1: CAATCTGAATTCCGGTCTCCC
# DNA 2: TGGTGGCTACGACGGGATT
# B15: AUGAGGG (DNA:RNA)
# RNA: B10 RNA with U28A, A30G, A31G
# DNA 1: CAATCTGAATTCCGGTCTCCC
# DNA 2: TGGTGGCTACGACGGGATT
# B16: GUUAUUU (DNA:RNA)
# RNA: B7 RNA with C26U, C29U, G30U, C31U
# DNA 1: CAATCTGAATTCCGGTCTCCC
# DNA 2: TGGTGGCTACGACGGGATT
# B17: GCGCUCA (DNA:RNA)
# RNA: B10 RNA with A25G, U26C, U28C, G29U, A30C
# DNA 1: CAATCTGAATTCCGGTCTCCC
# DNA 2: TGGTGGCTACGACGGGATT
# B18: CUGGAUG (DNA:RNA)
# RNA: B10 RNA with A25C, U28G, G29A, A30U, A31G
# DNA 1: CAATCTGAATTCCGGTCTCCC
# DNA 2: TGGTGGCTACGACGGGATT
# B19: UUGAGAC (DNA:RNA)
# RNA: B10 RNA with A25U, U28A, A31C
# DNA 1: CAATCTGAATTCCGGTCTCCC
# DNA 2: TGGTGGCTACGACGGGATT
# B20: ACGCGUA (DNA:RNA)
# RNA: B10 RNA with U26C, U28C, A30U
# DNA 1: CAATCTGAATTCCGGTCTCCC
# DNA 2: TGGTGGCTACGACGGGATT
# B21: CCUAUCG (DNA:RNA)
# RNA: B7 RNA with G25C, C29U, G30C, C31G
# DNA 1: CAATCTGAATTCCGGTCTCCC
# DNA 2: TGGTGGCTACGACGGGATT
# B22: GCCAGUC (DNA:RNA)
# RNA: B7 RNA with U27C, C29G, G30U
# DNA 1: CAATCTGAATTCCGGTCTCCC
# DNA 2: TGGTGGCTACGACGGGATT
# B23: CAGCGAG (DNA:RNA)
# RNA: B10 RNA with A25C, U26A, U28C, A31G
# DNA 1: CAATCTGAATTCCGGTCTCCC
# DNA 2: TGGTGGCTACGACGGGATT
# B24: CUUGAGG (DNA:RNA)
# RNA: B7 RNA with G25C, C26U, A28G, C29A, C31G
# DNA 1: CAATCTGAATTCCGGTCTCCC
# DNA 2: TGGTGGCTACGACGGGATT
# B25: GCUCAUC (DNA:RNA)
# RNA: B7 RNA with A28C, C29A, G30U
# DNA 1: CAATCTGAATTCCGGTCTCCC
# DNA 2: TGGTGGCTACGACGGGATT
# B26: AUUGCUG (DNA:RNA)
# RNA: B10 RNA with G27U, U28G, G29C, A30U, A31G
# DNA 1: CAATCTGAATTCCGGTCTCCC
# DNA 2: TGGTGGCTACGACGGGATT
# B27: UAUGGAU (DNA:RNA)
# RNA: B10 RNA with A25U, U26A, G27U, U28G, A31U
# DNA 1: CAATCTGAATTCCGGTCTCCC
# DNA 2: TGGTGGCTACGACGGGATT
# B28: AUAUUUU (DNA:RNA)
# RNA: B10 RNA with G27A, G29U, A30U, A31U
# DNA 1: CAATCTGAATTCCGGTCTCCC
# DNA 2: TGGTGGCTACGACGGGATT
# B29: CAACGCC (DNA:RNA)
# RNA: B1 RNA with U25C, C27A, U29G, U30C, G31C
# DNA 1: CAATCTGAATTCCGGTCTCCC
# DNA 2: TGGTGGCTACGACGGGATT
# B30: CGAUAGG (DNA:RNA)
# RNA: B10 RNA with A25C, U26G, G27A, G29A, A30G, A31G
# DNA 1: CAATCTGAATTCCGGTCTCCC
# DNA 2: TGGTGGCTACGACGGGATT
# B31: GCCUCUG (DNA:RNA)
# RNA: B7 RNA with U27C, A28U, G30U, C31G
# DNA 1: CAATCTGAATTCCGGTCTCCC
# DNA 2: TGGTGGCTACGACGGGATT
# Molecular target: T1, RBFOX1 RRM
# Test: EMSA; HiTS-Eq, 1 nM pool, 10 min; buffer printed only for the single-RNA assays: 10 mM Tris pH 7.5, 150 mM NaCl, 3.4 mM EDTA, 0.001% NP-40, 30 C
# Conditions: tags: His6 N-terminal (pET28a); label: 5' 32P
# Outline: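 Purified wild-type or mutant RbFox RRM at increasing concentrations was equilibrated with 1 nM of 5′-radiolabelled RNA carrying 7 randomized nucleotides for 10 min in 50 µL. Unbound RNA was separated by 8% native PAGE and sequenced. Relative association constants came from read-count changes of each RNA species compared with the control reaction, normalised to the cognate motif.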
row,Binder,binding signal
1,B1,0.0131 KA relative to UGCAUGU
2,B2,0.0406 KA relative to UGCAUGU
3,B3,0.0125 KA relative to UGCAUGU
4,B4,0.00968 KA relative to UGCAUGU
5,B5,0.0114 KA relative to UGCAUGU
6,B6,0.00479 KA relative to UGCAUGU
7,B7,0.0169 KA relative to UGCAUGU
8,B8,0.0125 KA relative to UGCAUGU
9,B9,0.0232 KA relative to UGCAUGU
10,B10,0.00694 KA relative to UGCAUGU
11,B11,0.00378 KA relative to UGCAUGU
12,B12,0.00475 KA relative to UGCAUGU
13,B13,0.00557 KA relative to UGCAUGU
14,B14,0.0233 KA relative to UGCAUGU
15,B15,0.0104 KA relative to UGCAUGU
16,B16,0.00975 KA relative to UGCAUGU

row,Binder,binding signal
1,B17,0.0106 KA relative to UGCAUGU
2,B18,0.0353 KA relative to UGCAUGU
3,B19,0.00439 KA relative to UGCAUGU
4,B20,0.00319 KA relative to UGCAUGU
5,B21,0.00527 KA relative to UGCAUGU
6,B22,0.0151 KA relative to UGCAUGU
7,B23,0.00935 KA relative to UGCAUGU
8,B24,0.00861 KA relative to UGCAUGU
9,B25,0.0109 KA relative to UGCAUGU
10,B26,0.0174 KA relative to UGCAUGU
11,B27,0.00577 KA relative to UGCAUGU
12,B28,0.00334 KA relative to UGCAUGU
13,B29,0.00593 KA relative to UGCAUGU
14,B30,0.0113 KA relative to UGCAUGU
15,B31,0.0199 KA relative to UGCAUGU
